# From patent publication US10299477B2 (priority 2015, dated 2019)
# Experiments:
# Phytophthora infestans = assay type: in vivo; conditions: 250 ppm spray (2.5 ml/pot), preventive; 5-10 days after inoculation; control value class
# Magnaporthe grisea = assay type: in vivo; conditions: 250 ppm spray, preventive; control value class
# [1] = test system: Colletotrichum orbiculare; conditions: 250 ppm spray (2.5 ml/pot), preventive; 6-10 days after inoculation; control value class
SMILES,Test F control value (late blight on tomato) (Phytophthora infestans),Test A control value (blast on rice) (Magnaporthe grisea),Test H control value (anthracnose on cucumber) [1]
CCn1c(-c2c(F)cccc2F)c(-c2c(F)c(F)c(F)c(F)c2F)ccc1=O [Compound 368],L (L shows 50% or less of control values),H (H shows more than 50% of control values),H (H shows more than 50% of control values)
CCc1cc(-c2cc(OC)ccc2Cl)c(-c2c(F)cccc2F)n(CC)c1=O [Compound 369],L (L shows 50% or less of control values),H (H shows more than 50% of control values),H (H shows more than 50% of control values)
CCCc1cc(-c2cc(OC)ccc2Cl)c(-c2c(F)cccc2F)n(CC)c1=O [Compound 370],L (L shows 50% or less of control values),H (H shows more than 50% of control values),L (L shows 50% or less of control values)
CCn1c(-c2c(F)cccc2F)c(-c2cc(OC)ccc2Cl)cc(OC)c1=O [Compound 371],L (L shows 50% or less of control values),H (H shows more than 50% of control values),H (H shows more than 50% of control values)
CCn1c(-c2c(F)cccc2F)c(-c2c(F)c(F)c(F)c(F)c2F)cc(Cl)c1=O [Compound 372],L (L shows 50% or less of control values),H (H shows more than 50% of control values),L (L shows 50% or less of control values)
